Assay results as given in PubChem BioAssay AID1346428 (National Center for Advancing Translational Sciences (NCATS), 2018).
In all, about 48,000 compounds went through this assay and about 1,200 (2.5%) were called active. Another 2% or so got no clear call; they are omitted.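 Rule for the calls: active = activation of at least 60% and not above a set upper limit (about 1 call in 100 departs from these limits); inconclusive = activation of 40% to 60%, or above that upper limit; inactive = activation under 40%.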 Some of the results follow.
Note: 0% is about no effect.

The compounds below were run against Probable G-protein coupled receptor 32 (Homo sapiens) (UniProt O75388) (assay: qHTS for Agonists of Human Resolvin D1 Receptor DRV1). Conditions: CHO-K1 GPR32 beta-arrestin PathHunter luminescence, 90 min; at 76.9 µM; active compounds read high; zero percent set by DMSO-only wells.
Sequence of UniProt O75388 (O75388 whole entry, looked up): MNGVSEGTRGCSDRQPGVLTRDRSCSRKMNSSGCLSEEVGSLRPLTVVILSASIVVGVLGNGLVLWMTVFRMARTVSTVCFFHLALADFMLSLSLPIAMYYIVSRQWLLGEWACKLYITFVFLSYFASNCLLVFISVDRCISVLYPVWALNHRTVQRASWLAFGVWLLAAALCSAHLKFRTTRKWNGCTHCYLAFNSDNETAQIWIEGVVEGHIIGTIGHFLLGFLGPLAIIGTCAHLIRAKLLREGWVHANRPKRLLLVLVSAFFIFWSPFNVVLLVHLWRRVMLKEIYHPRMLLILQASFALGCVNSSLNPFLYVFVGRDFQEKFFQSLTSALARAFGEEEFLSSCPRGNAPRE
Procedure, shortened: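 CHO-K1 cells stably expressing ProLink-tagged GPR32 and Enzyme Activator-tagged beta-arrestin were seeded at 2,500 cells/well overnight, exposed to compounds for 90 min at 37 °C, then read by beta-Gal complementation chemiluminescence after 1 h detection reagent.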
CC(C)CCn1c(=O)c2sccc2n2c(CCCC(=O)NC(C)c3ccccc3)nnc12 (stereo not given) was tested, and the activation was inactive: -7.22%. With Cc1cccc(-n2cnc3cc(C(=O)NC4CCCCCC4)ccc32)c1 the activation was inactive: -2.48%. In the case of Cc1cccc(N2CCN(c3nc4ccccc4c4nc(-c5cccnc5)nn34)CC2)c1C, the activation is reported as inactive: 20%. With Cc1ccc(CCNC(=O)c2cc3c(=O)n(C)c4ccccc4c3n2C)cc1 the activation was inactive: -11.4%. CC(=O)[C@H]1CC[C@H]2[C@@H]3CCC4=CC(=O)CC[C@]4(C)[C@H]3CC[C@]12C was tested, and the activation was inactive: -0.774%. For Cc1ccc2cc3cc(C(=O)N(C)c4ccccc4C)oc3nc2c1, the activation was inactive: -18%. With CCn1cc(C(=O)Nc2ccc(C(C)C)cc2)c2cc(OC)c(OC)cc2c1=O the activation was inactive: 0.557%. For CCc1cccc(N2C(=O)N(Cc3c(F)cccc3Cl)c3ccccc3S2(=O)=O)c1, the activation was inactive: -25.2%. CCc1cnc2c(c1SCCC(C)C)c(=O)n(C)c(=O)n2C was tested, and the activation was inactive: -23.8%. In the case of CCOC(=O)c1ccc(NC(=O)c2c(NCc3cc(OC)ccc3OC)sc3c2CCC3)cc1, the activation is reported as inactive: -17.7%. In the case of Cc1cccc(C)c1NC(=O)CN1C(=O)c2ccccc2Sc2ncccc21, the activation is reported as inactive: 0.0212%. With CC(=O)N1CCN(c2ccc(OC[C@H]3CO[C@](Cn4ccnc4)(c4ccc(Cl)cc4Cl)O3)cc2)CC1 the activation was inactive: 2.77%. With CC(C)OCCCNC(=O)c1nn(C)c2c1CSc1ccccc1-2 the activation was inactive: -7.37%. With CCCOC(=O)c1ccc(Nc2c(C(=O)OCC)cnc3c(C)cc(Cl)cc23)cc1 the activation was inactive: -20.8%. With COc1ccc(-c2noc(CSc3nnc(-c4ccccc4)n3C)n2)cc1 the activation was inactive: 7.73%. For CC(=O)c1cc(-c2ccccc2)n(CC(=O)NCc2ccccc2C)c1C, the activation was active: 79.7%. COC(=O)c1cc2sc(C)cc2n1CC(=O)Nc1ccc(C)cc1Cl was tested, and the activation was inactive: -11.6%. In the case of COc1ccc(C)cc1NC(=O)CN1CCN(S(=O)(=O)c2ccc(Br)cc2)CC1, the activation is reported as inactive: -7.9%. In the case of Cc1oc2c(cc(NS(=O)(=O)c3ccc(F)cc3)c3ccccc32)c1C(=O)OCc1ccccc1, the activation is reported as inactive: 24.4%. COc1ccc(C(=O)N2CCN(c3nc4c(C)c(Cl)ccc4s3)CC2)c(OC)c1 was tested, and the activation was inactive: -5.07%. CCOc1ccc(NC(=O)CN(C)S(=O)(=O)c2ccc3[nH]c4c(c3c2)CCCC4)cc1 was tested, and the activation was inactive: 20.6%. With Cc1cc(-c2ccc(S(=O)(=O)Nc3cccc(Cl)c3C)cc2)on1 the activation was inactive: -6.26%. COc1cc(OC)c(OC)cc1/C=C/c1nc2ccccc2c(=O)n1-c1ccc(Br)c(C)c1 was tested, and the activation was inactive: -3.28%. For Cc1cc(C(=O)Nc2cccc(C)c2C)c2c(C)nn(-c3cccc(F)c3)c2n1, the activation was inactive: -6.93%. Cc1ccc(NC(=O)Cn2c(=O)ccc3cc(S(=O)(=O)N4CCCC4)ccc32)cc1N(C)C was tested, and the activation was inactive: -7.65%. For O=C(c1ccc(Cl)cc1)c1cn(Cc2ccccc2)c2cc3c(cc2c1=O)OCCO3, the activation was inactive: -11%. Cc1ccc(Cl)cc1N1CCN(C(=O)C2CCCN(Cc3nc(-c4cccc(Cl)c4)oc3C)C2)CC1 (stereo not given) was tested, and the activation was inactive: 7.53%. For CCCCNc1nc2c(c(=O)n(Cc3ccccc3)c(=O)n2C)n1C, the activation was inactive: -6.66%. In the case of COc1ccc(N(C)C(=O)c2cc3c(s2)-c2ccccc2OC3)cc1, the activation is reported as inactive: -21.1%. COc1ccc(CCNC(=O)C(=O)NCC(c2cccnc2)N2CCN(c3ccccc3)CC2)cc1 (stereo not given) was tested, and the activation was inactive: 6.29%. In the case of CCC(C(=O)NCCc1ccc(Cl)cc1)n1ccc2cc(S(=O)(=O)N3CCCCC3)ccc21 (stereo not given), the activation is reported as inactive: -6.34%. O=C(NCc1ccc(Cl)cc1)c1ccc2c(c1)N(Cc1ccccc1F)C(=O)c1ccccc1S2=O (stereo not given) was tested, and the activation was inactive: -14.2%. In the case of CCc1ccc(CNC(=O)c2ccc(CS(=O)(=O)Cc3cccc(C)c3)o2)cc1, the activation is reported as inactive: -8.61%. With CCn1c(=O)cc(SCC(=O)NCc2ccc(C)cc2)c2ccccc21 the activation was active: 69.3%. In the case of O=C(NCc1ccco1)c1ccc2c(c1)N(Cc1ccccc1F)C(=O)c1ccccc1S2(=O)=O, the activation is reported as inactive: -37.1%. With C=Cc1ccc(Cn2c(=O)n(CC3CCC(C(=O)NC(C)C)CC3)c(=O)c3sccc32)cc1 (stereo not given) the activation was inactive: 15.1%. CCOc1ccccc1-c1nc(C(N)=O)c2c(n1)n(-c1ccc3c(c1)OCO3)c(=O)n2C was tested, and the activation was inactive: -7.3%. With CC(=O)Nc1ccc(S(=O)(=O)N(Cc2ccccc2)Cc2ccccc2)cc1 the activation was inactive: 12.9%. For COc1cccc(NC(=O)CCN2CCN(CCO)CC2)c1, the activation was inactive: 11%. For COc1cccc(-c2ccc3c(N)c(C(=O)Nc4ccccc4C)sc3n2)c1, the activation was inactive: -17%. For CCCCNC(=O)c1ccc2c(c1)NC(=O)C(CS(=O)(=O)Cc1ccc(F)cc1Cl)N2 (stereo not given), the activation was inactive: -7.67%. In the case of CCCC(=O)Nc1ccc2nc(SCc3ccc(C)cc3)sc2c1, the activation is reported as inactive: 8.29%. With CC(C)CCNC(=O)c1ccc2c(c1)nc1n2CCCCC1 the activation was inactive: -8.28%. With COCCNc1ccc(-c2nc(-c3ccccn3)no2)cc1[N+](=O)[O-] the activation was inactive: -0.0064%. With COc1ccc(C)cc1NC(=O)Cc1c(C(=O)O)c(C)cn1C the activation was inactive: -5.79%. In the case of Nc1ccc2oc(Cc3ccc(Cl)cc3)nc2c1, the activation is reported as inactive: -17.8%. With CCCN1CCN(CCCNC(=O)c2ccc(CS(=O)c3ccc(OC)cc3)o2)CC1 (stereo not given) the activation was inactive: -4.11%. With CCN(CC)CCNC(=O)c1cc2c(=O)oc3ccc(C)cc3c2s1 the activation was active: 67.3%. With CCCN(CCC)C(=O)CSc1nnc2cc(C)c3ccccc3n12 the activation was inactive: 10.3%. For O=C(/C=C/c1ccc(Cl)cc1)Nc1nc(-c2cccs2)ns1, the activation was inactive: 25.1%. In the case of Cc1cc(C)c(Cn2c3ccccc3c3cnn(CC(=O)NCC(C)c4ccccc4)c(=O)c32)c(C)c1 (stereo not given), the activation is reported as inactive: -15.7%. For Cc1ccc(NC(=O)Cn2nnc3sc4c(c3c2=O)CCCC4)c(C)c1, the activation was inactive: -3.29%. For CCn1cc(C(=O)NCc2ccc(F)cc2)c(=O)c2cc(S(=O)(=O)N(C)C)ccc21, the activation was inactive: -1.45%. With CC(=O)N1CCCc2cc(S(=O)(=O)N(Cc3ccccc3)C(C)C)ccc21 the activation was inactive: 1.7%. COc1ccc(-n2c(CCC(=O)O)ccc2-c2ccccc2)c(OC)c1 was tested, and the activation was inactive: 24.2%. In the case of COc1cc(OC)c(NC(=O)CCNS(=O)(=O)c2ccc3c(c2)oc(=O)n3C)cc1Cl, the activation is reported as inactive: 8.23%. For CCOC(=O)c1ccccc1NC(=O)c1nn(C)c2c1COc1ccccc1-2, the activation was inactive: -15.8%. In the case of CC(=O)Nc1cccc(NC(=O)C(=O)NCCc2csc3nc(-c4ccccc4F)nn23)c1, the activation is reported as inactive: 9.92%. In the case of Cc1ccc(CNC(=O)CSC2=Nc3ccccc3C3=NC(C)C(=O)N23)cc1 (stereo not given), the activation is reported as inactive: -2.08%. With Cc1ccc2occ(CC(=O)N3CCN(c4cccc(Cl)c4)CC3)c2c1 the activation was inactive: -35%. With CCCN1CCN(CCCNC(=O)Cn2c(-c3cccs3)cc3cc(Cl)ccc32)CC1 the activation was inactive: 27.1%. Cc1cc(Cl)ccc1NC(=O)c1cc2ccccn2n1 was tested, and the activation was inactive: 7.17%. COc1ccccc1N1CCN(S(=O)(=O)c2ccc(-c3cnc(C4CC4)o3)cc2)CC1 was tested, and the activation was inactive: -8.72%. CC(C)CCNC(=O)c1cn(C)c2ccc(S(=O)(=O)N3CCOCC3)cc2c1=O was tested, and the activation was inactive: -4%. For Cc1ccc(OCc2nnc(-c3ccccc3)o2)cc1, the activation was inactive: 18.6%. For COc1cc2c(=O)c(S(=O)(=O)c3ccccc3)cn(CC(=O)Nc3ccccc3C)c2cc1OC, the activation was inactive: 35.6%. With Cc1cc(C)c(NC(=O)Cn2c(=O)n(Cc3ccccc3)c(=O)c3c(C)c(C(=O)N(C)C)sc32)c(C)c1 the activation was inactive: -13.1%. For COc1cc2c(cc1OC)C(COc1ccccc1OC)N(C(=O)c1ccccc1OC)CC2 (stereo not given), the activation was inactive: -10.2%. With Cc1c(Cl)cccc1-n1nc(C)c2c(C)cc(=O)n(CC(=O)NCc3ccccc3)c21 the activation was inactive: -7.14%. CCc1cccc(NC(=O)CCS(=O)(=O)c2cc3c4c(c2)CCN4C(=O)CC3)c1 was tested, and the activation was inactive: 1.25%. With Cc1cccc(C(=O)Nc2cccc(OCc3cc(=O)n4ccccc4n3)c2)c1 the activation was inactive: 0.17%. With CCC(C)NC(=O)CSc1nc2cc3c(cc2c(=O)n1CCCCCC(=O)NCc1ccc(OC)cc1)OCO3 (stereo not given) the activation was inactive: -9.4%. COc1c(Cl)cc(Cl)cc1CNCCSc1nnnn1C was tested, and the activation was inactive: -5.38%. O=C(Nc1nc2n(n1)C(c1ccc(F)cc1)C=C(c1ccccc1)N2)c1cccc([N+](=O)[O-])c1 (stereo not given) was tested, and the activation was inactive: -37.3%. In the case of CCC1CCCCN1Cc1cn2c(-c3ccc(Br)cc3)nnc2s1 (stereo not given), the activation is reported as inactive: 14.1%. CCS(=O)(=O)N1CCc2cc(C(=O)Nc3ccc(OC)cc3OC)ccc21 was tested, and the activation was inactive: 16.3%. In the case of CC(=O)c1cccc(NC(=O)c2nc(-c3ccccc3)n(-c3cccc(C)c3)n2)c1, the activation is reported as inactive: 9.97%. CCOc1ccccc1NC(=O)CN1CCN(S(=O)(=O)c2ccc(Br)cc2)CC1 was tested, and the activation was inactive: -2.49%. For COc1ccc(NC(=O)C2CCC(CNS(=O)(=O)c3cccs3)CC2)cc1OC (stereo not given), the activation was inactive: 0.402%. For Clc1ccccc1-c1nnc(-c2ccccc2CNc2ccccc2)o1, the activation was inactive: -3.74%. With Cc1cccc(CC(=O)Nc2cccc(-c3nc4cccnc4s3)c2)c1 the activation was inactive: 35%. CCN1CCc2c(sc(-n3cccc3)c2C(C)NC(=O)Nc2ccccc2C)C1 (stereo not given) was tested, and the activation was inactive: -24.8%. For CC(C)NC[C@@H](O)c1ccc(O)c(O)c1, the activation was inactive: 17.5%. In the case of CCn1nnc2cc(C(=O)Nc3cccc(C)c3C)ccc21, the activation is reported as inactive: 6.25%. Cc1ccc(C)c(N2CCN(S(=O)(=O)c3csc(C(N)=O)c3)CC2)c1 was tested, and the activation was inactive: 8.37%.
